Data as given in the supplement of paper PMC3334620.
The full ranking holds about 33,000 sequences; the median of “E-score (-0.5 to 0.5)” is about -0.01, and the highest 2% start at about 0.26. This is one part of the list.

Biological target: Ste12 (UniProt P13574)
Assay: PBM E-score (8-mer binding enrichment) (E-score (-0.5 to 0.5)); higher = stronger / more preferred TF binding; most listed sequences are background and not binding sites
Conditions: protein concentration: 200 nM; construct: GST-DNA-binding domain
How it was run: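 Yeast transcription factors, full-length or as DNA-binding domains, were expressed with a GST tag using PURExpress in vitro transcription/translation. At about 100-200 nM they were applied to universal all-10-mer Agilent arrays, double-stranded by primer extension on fresh or once-stripped slides. Fluorescent anti-GST detected bound protein, and masliner normalised the scans. E-scores for ungapped eight-base words, pooled with reverse complements, came from the Universal PBM Analysis Suite.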

Sequence	PBM E-score
AAGGGGGT	-0.235
CAGTCCTC	-0.0957
ATCCCGTC	0.0461
ACGGTACA	0.0958
AGTAAATG	0.114
AACGATCC	-0.0207
ACTTTGAG	0.0952
CAAGCCGC	-0.0997
ATTGCATG	0.109
GCTTTGTA	0.114
CCCTGCCC	0.0686
AGATGGCG	0.11
AGGTGTGG	-0.0537
ACCTGTGA	0.131
GTCTAGGA	-0.0366
GTATTTTA	0.166
GGGAGCAC	-0.254
CACCATAA	0.136
ATCATTCG	0.142
TACCAGCA	-0.0129
GAAGTTAC	0.0932
CCAATACA	0.0294
GATTGTAC	-0.172
AGTAGCAG	0.07
ATCGCGAG	0.107

Sequence	PBM E-score
CAAGCCCG	-0.104
ACTTATAA	0.175
TCTGAGAA	0.0747
ATAAGTCA	0.197
ATTTGCTA	0.0107
AAAATTTT	0.311
AACCGTAG	-0.156
GTAGAAAC	0.0517
AAGGTGAA	0.149
AGTCAAGA	-0.047
AAAATCAC	0.222
CCCGCGAG	0.119
CGAACCAA	0.0313
AAAGTTCG	-0.244
GGACTTAA	-0.0538
AGTCCTAT	-0.226
CACACTGC	-0.201
CAGTTCCA	0.0555
CGAAGCAA	-0.0326
ACCCAGTC	-0.0677
CCTCAACA	0.0274
CGCTCAAG	-0.188
TCCCAACA	0.00266
CATGTTCG	0.0721
GGGATGGA	-0.0192

Sequence	PBM E-score
TAACGTGA	-0.0707
CCGAAAGC	-0.194
GCAGACTA	-0.162
AAGTGGCT	-0.0554
CGTCCCTC	-0.0466
CCGTTTCC	0.139
AGCCACTC	-0.103
GGCATAGA	0.0282
GATGTTAC	0.0919
AAGTAGTC	0.0527
CAAGGCCG	-0.134
TCAGAGGA	-0.0615
CGCTGCAG	-0.072
ATCCCAGC	-0.139
CTTACCTC	-0.115
ACGCTGCG	-0.0283
CGAAAAAA	0.308
CCTTTCCG	0.115
AACTCAGA	0.0741
AAAATGCA	0.00439
CACAGTGC	-0.188
CTCCCGAA	-0.0605
ATCCACTA	-0.0722
CTTCACGC	-0.0578
AGCAGTAT	0.0947

Sequence	PBM E-score
GGGGAGAC	-0.0846
AACGTATT	0.0441
CAGCTAAA	-0.0448
CAACATGA	0.0787
GCGTTAAA	0.0836
AAACCAAT	0.225
GGAAACCC	-0.0121
GCCTTTCC	-0.21
GCATATCA	0.0522
CCACTGGA	-0.225
ATCCTGAG	0.0586
CTTAAAGC	-0.0197
CCTATCCC	0.116
AATTACAG	0.201
ATGTGCCA	-0.0367
AAATTTTA	0.132
GCGCCACA	-0.00969
AGACGCCC	0.0625
CCAAAATC	0.183
CCGATTGA	-0.0246
CCATGGCG	-0.0357
AACGTGAT	0.0239
CCTTCCGC	-0.0635
GAATGACC	0.101
ACGCCTAC	-0.26

Sequence	PBM E-score
AATAGTTA	0.143
AGAGCCCG	-0.0751
ATTAACAA	0.216
GAACACCA	-0.0568
CCTCCAAG	-0.115
ACCGTTAT	0.0594
ACTCATCA	0.0605
AGGCACCA	0.0748
AATCGATA	-0.0141
TCGTTAAA	0.181
CACATCTC	0.00481
TCATCAAA	0.236
TCGATAGA	-0.246
GAGCAATA	0.065
AGCACTTC	-0.149
AAGTGGGG	-0.0336
CATTAGTA	0.071
ACCCATCC	0.00204
CAAAACGA	0.272
ATGAGATC	-0.14
CAAATTAA	0.203
CACGACGA	-0.118
ATCCGTTC	0.0693
AATACAAT	0.0948
AACGGTGA	-0.122

Sequence	PBM E-score
AAGTGGAG	0.0169
CATTCTGC	0.0299
ATCACCTA	-0.089
TAAACAGA	0.0943
CTCAAGCA	-0.0187
AATCATGC	-0.0691
ACACATGC	-0.14
GAGGATCC	-0.0539
GTCTCGTA	-0.14
CAATTCAG	-0.031
GTCTAAAC	0.221
ATCAGTAC	-0.131
CAGACCCG	0.0234
ACGGGCAA	-0.0669
CTACTATC	0.111
AAGAACGT	0.0398
CCCCATGC	-0.0446
TTCGTCAA	0.0624
CCAGTCCC	-0.107
TGCCTCCA	-0.237
CAGCGTGC	-0.0326
ATTTTCAC	0.23
AGGTAAGA	0.0479
CTAGCGAG	-0.345
ATCAACAT	0.0333

Sequence	PBM E-score
AACCAATG	0.136
GCGTATGA	0.0739
AATTATAG	0.179
AAGCCAAC	0.0721
ACAGGAAT	-0.09
GCGGCTAA	-0.0126
GACCAGGA	-0.183
TGGGTGAA	0.184
CGAATATC	0.00063
CACCTGAG	0.0638
AGGATAAG	-0.0783
TTCATCAA	0.176
TATTCTAA	0.196
TAGCATGA	-0.0841
ATTCAATA	0.155
CGATCGAC	0.0634
ACTGTCAG	0.0465
GTTAGGCA	-0.306
CGCAATCC	0.155
AATTACTC	0.11
GAGGTCTA	0.0072
ACCGTGTG	-0.064
